Source: the supplement of paper PMC11417369
± gives the standard deviation of the averaged measurements. This is one part of the list.

Tested on: PfAP2-G AP2 domain (GST-tagged)
Assay: gcPBM binding intensity (ln(normalized median fluorescence intensity)); higher = stronger DNA binding
Outline: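 The binding buffer was 1× PBS containing 1% milk, 0.2 mg/ml BSA, 0.5% salmon testes DNA and 0.03% Triton X-100. In it, GST-tagged P. falciparum DNA-binding domains expressed in E. coli were applied for 1 h to an Agilent 4 × 180k array of primer-extended double-stranded 36-bp intergenic genomic probes plus negative controls. Binding intensity, read with Alexa488 anti-GST antibody and a 488 nm scan, is the highest Masliner-normalised natural-log median intensity across replicate spots of either probe orientation.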

Sequence	gcPBM binding intensity (ln)
TTTTTGTTAAACAGGGTGCTAATCTGAATTAATATT [GTGCAC_site9908]	9.97 ± 0.13
GAATTTTTTTAATGTTGTACTTTTTTTTTTTTTTCT [XGTACX_site648]	11.4 ± 0.96
ACATATATATATATATATATATATATATTACATTTA [CACACA_negctrl_site627]	10.3 ± 0.45
CATACCATACATAAAACACACAAAATTTACAGAATA [CACACA_site7451]	9.92 ± 0.028
AATAGTAAAAATCACTGTACGTTTATTTTTAAAATG [XGTACX_site1035]	11.7 ± 0.91
CCATATACAACCATACGTACATATATATATATATAT [XGTACX_site8193]	11.5 ± 0.99
TTTGGTTATATTTAAAAAAGACTAATGAAAATTAAA [XGTACX_negctrl_site526]	9.81 ± 0.028
AAAAAAAAAAAAAATACACACATAAAATAAATAACA [CACACA_site439]	10 ± 0.2
AATTTACAAATATAATGTACATAATTATATATATAT [XGTACX_site278]	11 ± 0.53
ATATATATATATTACACACACACAAAAAAAATAAAG [CACACA_site118]	10.4 ± 0.26
TATATACTTTTATGTACACACCTATAATATGGGTGA [CACACA_site5044]	11.4 ± 0.7
ATATTATTTATAGGGTGTACCTTATTATTATAAGAA [XGTACX_site7148]	11.2 ± 0.77
TAGAAAAACATTACGTGTACCAAACATCCTAGCAAC [XGTACX_site4888]	10.9 ± 0.42
TATAATATTATACATAGTACACATCACACATCGCAA [XGTACX_site4650]	11.2 ± 0.7
AAAATAAGGAAAAAAAAAAAAAAAAAAAAAAAAAAG [CACACA_negctrl_site1291]	10.1 ± 0.13
ATAATATTTTGAAACGGTACACTTTTAAAATACACT [XGTACX_site4423]	11 ± 0.69
AATAAAAATCCACAAGCACACAAATGTACTTATATA [CACACA_site8783]	11.4 ± 0.85
TAAATACAAAAATGTACACACATATAAATATTTTTA [CACACA_site7612]	11.4 ± 0.93
AAAAAAAAAAAACATACACACAAATATGTACATACA [CACACA_site7807]	11.4 ± 0.81
TATATATTAATATATGCATGTACGATTATTATAATA [TGCATGCA_site446]	11.2 ± 0.9
CTTAGTGTATTTGAATGTACGCATAAATATAATTAT [XGTACX_site2830]	11.6 ± 1.1
ATTATTAAAATGATATGTACGCACATAATATACATA [XGTACX_site3236]	11.6 ± 0.94

Sequence	gcPBM binding intensity (ln)
ACAAGATGATGGAAATGTACATAAAAAGAATCATAT [XGTACX_site8682]	11.2 ± 0.63
TTTTTTTTTATATTTAGTACATATATATTATTATAT [XGTACX_site3334]	10.9 ± 0.57
AACACTACATAAAACTGTACAATAGTATTTTATTAT [XGTACX_site996]	10.9 ± 0.49
TTAATTAAATATTATACACACAAAAAAATAACTTTA [CACACA_site6197]	10.1 ± 0.19
TGTATTTAAAATGGTTGTACATAAATAAAAATAAAA [XGTACX_site7771]	11.3 ± 0.73
TATTGAAACGTATAGACACACATATGATATATATAT [CACACA_site3226]	10.1 ± 0.18
ATTTATTTATTTATATGTACTTATATATGTATTTTC [XGTACX_site6269]	11.3 ± 0.84
AAAGTGTTAACCTAATCTTTAGTTTTTAAACAATAT [CACACA_negctrl_site841]	9.79 ± 0.11
ATTATATATACACGCACACACACTTATATATATATA [CACACA_site9093]	10.4 ± 0.18
CATTCATTTATTAATTGTACTTTTAAGGTTAAATAA [XGTACX_site5838]	11.4 ± 1.1
TAAAAATATATACATACATGCATACATATATATGTA [TGCATGCA_site774]	9.81 ± 0.042
TTTTTAACATATCATACACACAACAACTTTTTATAG [CACACA_site1962]	10.2 ± 0.27
CAAGCCCTTCTGCTTACACACAGTAATTATTGTGTA [CACACA_site2953]	9.72 ± 0.18
AATATTTATTTTACATGTACTTATTTTTCTTTTAAC [XGTACX_site3631]	11.4 ± 0.88
AATATATATTTATATTGTACATATATATATATTTCT [XGTACX_site2603]	11 ± 0.64
TAATTTATTATATTTTGTACGTAAAATTATTATTGT [XGTACX_site8155]	11.3 ± 0.81
TAGGAAAAGAAAAGCACACACATAAATAAATATATA [CACACA_site504]	9.74 ± 0.11
CCATTAAATACATACACACCCACACCCAAAAAAAAA [CACACA_site4633]	10.6 ± 0.43
ATATAGTAAAATTATACACACATGAATTTTCCCATA [CACACA_site3113]	9.94 ± 0.028
ACAAAATTTACAAAATGTACATATTGTAGATATTGT [XGTACX_site7618]	11.1 ± 0.62
AAAAAAAAAAATATAACACACAAAAAATTGTATCGA [CACACA_site1144]	9.65 ± 0.18
TATATATAATTTTATACATGCACATATTATATATAT [TGCATGCA_site1036]	9.96 ± 0.13

Sequence	gcPBM binding intensity (ln)
TATATTTTTTAAACCACACACAATATAGAGTATAAT [CACACA_site4510]	10.5 ± 0.38
ATTTATTCATTTGGGTGTACTATTTAAAAAAAACAA [XGTACX_site498]	11.4 ± 0.8
TATTTATATTTTAACACACACATATTTATATTTATA [CACACA_site7324]	10 ± 0.31
AAAAAAAAAAAACATACACACAATAAAATAGGGGTA [CACACA_site2399]	9.83 ± 0.085
ATTTATTTATTAAGATGTACTTATTAAAAATAATAA [XGTACX_site7392]	11.4 ± 1.2
TATAAATAAAGACACACACACATATAAATAAATATA [CACACA_site7155]	9.98 ± 0.23
TTTATATACTATTCAAAGTGATAAATAATATATGAA [TGCATGCA_negctrl_site352]	9.76 ± 0.18
AATAAGAAATGTAAATGTACATAAAAAAAAGTATAT [XGTACX_site3573]	11.2 ± 0.57
TATATATATATATTATGTACATATATATTAAATATG [XGTACX_site2494]	11.2 ± 0.61
TTAGGGTTTTATAAATGTACTTATTTATACATCCTC [XGTACX_site5769]	11.1 ± 0.88
CACATACAGACATACACACACATATAGATTAATATA [CACACA_site6399]	10.2 ± 0.26
ATTTTTTAACATATCATACACACAACCACTTTTTAT [CACACA_site1961]	10.6 ± 0.36
TAAACATTTTTGCACGCACACAAAAAAAAAATAAAA [CACACA_site167]	10.5 ± 0.46
ATTAAATGCAGTTCGGTGCATTAAGGTTATGATGAA [GTGCAC_site9883]	9.94 ± 0.11
AACATAAAAATGAACATACACACATATATATATATA [CACACA_site2497]	10.1 ± 0.37
ATAAAAATACAGTTAACACACATGTGGATATATATG [CACACA_site3771]	10.2 ± 0.049
CATACATACAGACACACACACATATATATATATATA [CACACA_site2920]	10.3 ± 0.3
AGATATTATAATTAATGTACAAAAAGAAAAAATAGA [XGTACX_site8964]	10.8 ± 0.35
AAACAAAAAAGTAAGAAAAGGGATGATTGGATCCAA [CACACA_negctrl_site1230]	10.01 ± 0.057
TATTATTCTGTATTTGCATGTGATCATATATATGTA [TGCATGCA_site1053]	10.095 ± 0.007
CATATGTATATGACTACACACAAGGGTGTACAGATA [CACACA_site4776]	11.6 ± 0.95
TTTTTTTTTTTTTATTGTACAAAGGTATAAAATAAT [XGTACX_site2396]	10.9 ± 0.68

Sequence	gcPBM binding intensity (ln)
TATATAACATAATATACACACATTATGTGCGTAATT [CACACA_site4073]	10.15 ± 0.085
GTATATCATTTTGGGGTGCTTAAAAATAATGAATAC	10.7 ± 0.57
TATAGATAAGAATATGCACACATTTTATTTTTTTTT [CACACA_site1982]	9.79 ± 0.28
TTGTAATATCTTGTCACACATATATATATATATATA [CACACA_site4937]	10.1 ± 0.26
ATATATTTAATATTCACACATAATTATTTTTACTCT [CACACA_site5438]	9.59 ± 0.48
ATATAATGATAATATTGTACATGTTATATTTCAATA [XGTACX_site8645]	10.9 ± 0.6
AAACATTAAAATAACTCACACATTTTTCTAGTCTTC [CACACA_site4612]	9.75 ± 0.14
TTTTTAATTTATTAAGAAGTAAAGAATAACTCTTTT [TGCATGCA_negctrl_site101]	9.55 ± 0.042
AATATATTTTTATATTGTACAAAAGAAAAAAAATAT [XGTACX_site1689]	10.9 ± 0.64
CATATAATATTTGAAACTATATATAAATATAAGGTA [TGCATGCA_negctrl_site19]	9.81 ± 0.057
GTATTATCTTTTAATAGTACATATTTTTTTGAAACA [XGTACX_site4050]	11 ± 0.65
TATATCCATATTGTATGTACACATATAATACCAATG [XGTACX_site7230]	11.5 ± 0.77
AGTTTTCCATGTTAATGTACTTAACAATACCATAAT [XGTACX_site209]	11.2 ± 0.81
ATTTATTCATAGACAACAAGAAAAAAAAAAAAAATT [CACACA_negctrl_site1168]	9.94 ± 0.23
TATTAAATATTCATATGTACATATAGTTTATAAATT [XGTACX_site7455]	11.1 ± 0.66
TTTTTTTTTTTTTTTACACACAAATGTATACTATAT [CACACA_site1787]	9.98 ± 0.36
AATACATACACAAATACACACACAAATACATACACA [CACACA_site8134]	10.3 ± 0.38
ATATATGTATGTTAGACACACATATTATAATATGTT [CACACA_site116]	10.09 ± 0.021
AAAACGGATTCTTTATAAATAAATAAATAAATATAA [XGTACX_negctrl_site157]	9.85 ± 0.071
AATACATAATAACGTTGTACAAAAATTATAATACAT [XGTACX_site6508]	11.1 ± 0.55
ACTATTAAGAATAAAGAAATATGTAATTGTATTTAA [CACACA_negctrl_site516]	9.78 ± 0.12
TTTATCAAAAAAAAAAAAAAAAAAAAAAAAAATTGT [CACACA_negctrl_site176]	9.6 ± 0.17
